The record followed here is article PMC5173251.

Results are given in words; binding and its absence hold for the method and conditions named. In cells and extracts the contact can be indirect. Some entries that bind do so weakly or less than the wild type. Sequences can lack the tags named with a protein.

Holding throughout (experiment): pull-down; GST-Prp19 fusion proteins on Glutathione-Sepharose 4B beads, incubated 2 h with extracts of AX2 cells expressing GFP fusions (50 mM Tris-HCl pH 7.4, 100 mM NaCl, 1% NP 40, 0.1% SDS, 0.5% sodium deoxycholate); washed with 50 mM Tris-HCl pH 7.4, 100 mM NaCl; blot with GFP mAb K3-184-2; only the target purified
Assay [1] addresses T1, GST-134-264 (D. discoideum) (UniProt Q7KWK5).
T1 sequence: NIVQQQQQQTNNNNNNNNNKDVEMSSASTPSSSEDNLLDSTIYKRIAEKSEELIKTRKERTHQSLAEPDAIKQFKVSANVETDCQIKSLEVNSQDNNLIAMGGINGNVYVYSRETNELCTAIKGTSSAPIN

The target of assay [2] is GST-Prp19-like (aa 64-133) (D. discoideum) (UniProt Q7KWK5).
The target of assay [3] is GST-Prp19 (full length) (D. discoideum) (UniProt Q7KWK5).

B1: GFP-DdRS (aa 1-220) (domain or fragment, UniProt Q55ED4 1-220)
chain: MSHRERDRDRDRDSDRDRDRNRYSRSRSRGSRSRSRSRSRSRDRNRNRDYNKDRSSNRDSYYNDRDYKKDRSSNRDRDYYDRDRNRDYKNSSSGSSSGGGGGGSGENYTVKSSSYRESNSNNSKVEIQKQENISKDYFIDNKGVNNSIERKDNIKNENNNNNSFDNRKAEFNNNSYGEKKEFDNNNNRNYHGGNSRYVNNNNNNNNNNYNNNNNKSNYNG
On to B1, for which the binding result in assay [1] and in assay [2] was “no binding” throughout.

B2: GFP-DdBasic (aa 221-400) (domain or fragment, UniProt Q55ED4 221-400)
chain: TDFFEYRKKLREEATCFSVYERSPSPPKKGELEEIDDQFLSNKKKSKKSRRKSSSNSDSSSSDSDSDSSRSREKRKKSKSRKDKKKRKEKKKHQRKSSKRSSKYSDSDSDSDSSFSDSDYSDSDRSDSEGRSRKKRSKKRSKKRHDHHKESVHDASMWEEKVEQQTQTLSNRDIGPKPIS
For B2, the binding result in assay [3], in assay [1] and in assay [2] was “binds” throughout.

B3: GFP-DdDUF926 (aa 401-510) (domain or fragment, UniProt Q55ED4 401-510)
chain: EVQVGSYGGAMMPGEAEAIAQFVKENKRIPRRGEVGLTSEQIASFEETGYVMSGSRHRRMNAVRIRKESQVYSAEEQKALAMLNREEKAKRENRLLADFRDLINTKLQAD
For the molecule B3, the binding entry in assay [3], in assay [1] and in assay [2] was “no binding” in each case.

B4: GFP-DdNKAP (full length DdNKAP, aa 1-510) (protein, UniProt Q55ED4 1-510)
chain: MSHRERDRDRDRDSDRDRDRNRYSRSRSRGSRSRSRSRSRSRDRNRNRDYNKDRSSNRDSYYNDRDYKKDRSSNRDRDYYDRDRNRDYKNSSSGSSSGGGGGGSGENYTVKSSSYRESNSNNSKVEIQKQENISKDYFIDNKGVNNSIERKDNIKNENNNNNSFDNRKAEFNNNSYGEKKEFDNNNNRNYHGGNSRYVNNNNNNNNNNYNNNNNKSNYNGTDFFEYRKKLREEATCFSVYERSPSPPKKGELEEIDDQFLSNKKKSKKSRRKSSSNSDSSSSDSDSDSSRSREKRKKSKSRKDKKKRKEKKKHQRKSSKRSSKYSDSDSDSDSSFSDSDYSDSDRSDSEGRSRKKRSKKRSKKRHDHHKESVHDASMWEEKVEQQTQTLSNRDIGPKPISEVQVGSYGGAMMPGEAEAIAQFVKENKRIPRRGEVGLTSEQIASFEETGYVMSGSRHRRMNAVRIRKESQVYSAEEQKALAMLNREEKAKRENRLLADFRDLINTKLQAD
On to B4, for which the binding result in assay [3], in assay [1] and in assay [2] was “binds” each time.
